This is an account of results in PMC4336329 (PLoS ONE, 2015).

Screen size: about 310,000 compounds; about 14,000 (4.5%) showed an effect of 50% or more. Effects have a minus sign here. This is one part of the list.
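Also: peak tail current of the secondary pulse compared with the same well before compound.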

In this test the target is human ether-à-go-go-related gene (hERG) potassium channel (human, UniProt Q12809). The experiment in a line: primary screen, population patch clamp on CHO cells stably expressing hERG.
Chain of human ether-à-go-go-related gene (hERG) potassium channel (Q12809 whole entry, looked up): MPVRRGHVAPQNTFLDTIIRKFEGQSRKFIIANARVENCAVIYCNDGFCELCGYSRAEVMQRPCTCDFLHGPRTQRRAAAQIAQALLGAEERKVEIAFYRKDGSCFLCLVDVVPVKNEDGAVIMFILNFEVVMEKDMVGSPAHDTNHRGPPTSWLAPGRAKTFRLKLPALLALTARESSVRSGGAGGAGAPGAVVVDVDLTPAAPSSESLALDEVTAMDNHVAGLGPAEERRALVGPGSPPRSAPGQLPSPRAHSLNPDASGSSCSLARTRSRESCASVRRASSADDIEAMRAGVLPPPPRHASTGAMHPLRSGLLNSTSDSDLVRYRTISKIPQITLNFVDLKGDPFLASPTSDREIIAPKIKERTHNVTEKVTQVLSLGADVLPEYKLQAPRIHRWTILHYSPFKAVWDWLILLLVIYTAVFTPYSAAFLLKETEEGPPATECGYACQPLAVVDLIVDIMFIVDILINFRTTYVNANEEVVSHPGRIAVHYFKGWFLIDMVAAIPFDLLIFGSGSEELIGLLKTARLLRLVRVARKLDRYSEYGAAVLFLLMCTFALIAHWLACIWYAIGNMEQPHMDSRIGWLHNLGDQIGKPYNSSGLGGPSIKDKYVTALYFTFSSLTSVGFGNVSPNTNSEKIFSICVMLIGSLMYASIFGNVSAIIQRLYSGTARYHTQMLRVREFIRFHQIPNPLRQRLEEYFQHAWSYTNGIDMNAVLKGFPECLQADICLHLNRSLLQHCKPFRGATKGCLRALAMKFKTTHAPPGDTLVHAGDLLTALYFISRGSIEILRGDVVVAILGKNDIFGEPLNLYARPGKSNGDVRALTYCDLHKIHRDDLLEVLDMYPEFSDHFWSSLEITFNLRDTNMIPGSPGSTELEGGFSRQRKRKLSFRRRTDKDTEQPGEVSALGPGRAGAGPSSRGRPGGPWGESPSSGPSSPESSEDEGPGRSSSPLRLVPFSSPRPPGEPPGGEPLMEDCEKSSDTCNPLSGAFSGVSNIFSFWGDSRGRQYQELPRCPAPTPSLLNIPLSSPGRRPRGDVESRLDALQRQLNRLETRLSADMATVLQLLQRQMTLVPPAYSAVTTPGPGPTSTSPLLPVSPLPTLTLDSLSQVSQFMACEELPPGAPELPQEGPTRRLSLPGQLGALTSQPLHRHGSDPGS
With `CCn1nnnc1NC(=O)c1ccc2ccccc2c1`, the “hERG current change (%, negative = inhibition) at 10uM” value is -2.9%. For the molecule `COCCn1nnnc1C(c1ccc(OC)cc1)N1CCN(c2ccccc2F)CC1.Cl` (stereo not shown), the “hERG current change (%, negative = inhibition) at 10uM” value is -8.29%. Under `COCC(C)NC(=O)c1cc(-c2cccc(OC)c2)on1` (stereo not shown) stands 15%. Consider `Cc1ccc(S(=O)(=O)N2CCCC(C(=O)NCC3CCCO3)C2)cc1` (stereo not shown), for which the “hERG current change (%, negative = inhibition) at 10uM” value was determined as 13.9%.

Take `CCOC(=O)N1CCC(NC(=O)CS(=O)(=O)Cc2nc(-c3ccccc3Cl)oc2C)CC1`: the “hERG current change (%, negative = inhibition) at 10uM” value was -3.72%. Under `CC[C@H](C)[C@@H](C(=O)N1CCNCC1)n1cc([C@@H](N)Cc2ccc(O)cc2)nn1.Cl` stands 9.94%; under `CCC(C)N(C(=O)COc1ccc(-c2nnco2)cc1)C1CCS(=O)(=O)C1` (stereo not shown), -8%. As for `CCCC(CCC)C(=O)NCCN1CCOCC1.Cl`, the “hERG current change (%, negative = inhibition) at 10uM” value turned out to be 2.7%. In the case of `Fc1ccc(Br)cc1C1C=C(c2ccc(Br)s2)Nc2ncnn21` (stereo not shown), the “hERG current change (%, negative = inhibition) at 10uM” value is reported as 9%. Under `COc1ccccc1-c1ccc(/C=N/O)o1` stands 11%. Consider `CCOc1ccc(CCNC(=O)CCn2nc(C)c3c(C)n(-c4ccccc4)nc3c2=O)cc1`, for which the “hERG current change (%, negative = inhibition) at 10uM” value is recorded as -11.9%. Turning to `CCCCCCCCN1[C@@H](CC(=O)O)c2cc(F)ccc2S1(=O)=O`, the “hERG current change (%, negative = inhibition) at 10uM” value was 7.81%. Take `COc1cccc(NC(=O)COc2coc(CN3CCc4ccccc4C3)cc2=O)c1`: the “hERG current change (%, negative = inhibition) at 10uM” value was 6.68%. To `O=C(CNC(=O)c1ccncc1)N/N=C/c1cccc([N+](=O)[O-])c1` belongs -10.2%; to `Cc1cccc(C(=O)Nc2cccc(S(=O)(=O)NCc3ccco3)c2)c1`, 1.6%.

`CNS(=O)(=O)c1ccc(CCC(=O)N2CCOCC2)cc1`: the “hERG current change (%, negative = inhibition) at 10uM” value came to 13.6%.

On to `CC1Cc2cc(S(=O)(=O)N3CCN(c4cccc(Cl)c4)CC3)ccc2N1C(=O)C1CC1` (stereo not shown), for which the “hERG current change (%, negative = inhibition) at 10uM” value came to 23%.

Regarding `COc1ccc(C2CC2/C(=N/O)c2ccccn2)cc1` (stereo not shown), the “hERG current change (%, negative = inhibition) at 10uM” value came out at 5.57%. `CCOC(=O)C1=C(COC(=O)c2cccc(Cl)c2)NC(=O)NC1C` (stereo not shown): the “hERG current change (%, negative = inhibition) at 10uM” value is -0.354%. To `O=[N+]([O-])c1ccc(Cl)c(NC2=NCCCCC2)c1` belongs 5.89%; to `O=C(NCCc1ccccc1)c1cccs1`, 2.92%. To `O=c1c2ccccc2nc(/C=C\c2ccccc2[N+](=O)[O-])n1-c1ccccc1O` belongs -22.8%; to `Cc1noc(C)c1C(=O)N1CCC(CO)(Cc2ccccc2)CC1`, -3.05%. Under `COCCN(CCNC(=O)c1ccc(NC2=NC3CS(=O)(=O)CC3S2)cc1)Cc1ccco1` (stereo not shown) stands -13.9%; under `CCN(CC)c1c([N+](=O)[O-])c(=O)oc2ccccc12`, -8.9%. On to `O=C(CCCC(=O)n1cnc2ccccc21)n1cnc2ccccc21`, for which the “hERG current change (%, negative = inhibition) at 10uM” value amounted to 6.71%. Under `O=C(CCC1CCCN(C(=O)c2ccoc2)C1)NCc1ccccc1F` (stereo not shown) stands -2.72%; under `Cc1ccc(S(=O)(=O)N2CCC(C(=O)O)CC2)cc1`, 27.9%.

In the case of `CCC(C)(C(=O)NC1CCCCC1)N(C)C(=O)c1ccc2c(c1)OCO2` (stereo not shown), the “hERG current change (%, negative = inhibition) at 10uM” value stood at 12%.

With `COCc1nnc(NC(=O)c2ccc(S(=O)(=O)N(CC(C)C)CC(C)C)cc2)o1`, the “hERG current change (%, negative = inhibition) at 10uM” value is recorded as -7.19%. To `CCOc1ccccc1N1CCN(C(=O)c2cc(-c3cccnc3)nc3c(Cl)cccc23)CC1` belongs 1.84%; to `CC(=O)Nc1cccc(C(=O)OCC(=O)c2ccccc2Cl)c1`, 7.03%; to `COc1cc(/C=N/NC(=O)Cc2ccccc2)ccc1Oc1ccc([N+](=O)[O-])cc1[N+](=O)[O-]`, 1.03%. As for `CCN(CC)S(=O)(=O)N1CCC(C(=O)NCCC2=CCCCC2)CC1`, the “hERG current change (%, negative = inhibition) at 10uM” value was -3.66%. On to `Cc1ccnc(NC(=O)CCC(=O)N(CC(=O)NCc2ccc(F)cc2)Cc2ccccc2)c1`, for which the “hERG current change (%, negative = inhibition) at 10uM” value was -33.3%. To `Cc1csc(NC(=O)CSc2nnc(Cc3cccn3C)n2-c2ccc(F)cc2)n1` belongs -7.8%; to `COc1ccc(CCNC(=O)C(=O)c2c(C)n(C)c3ccccc23)cc1OC`, 10.9%; to `COc1cccc(/C=C/C(=O)c2ccc3c(c2)OCO3)c1OC`, 1.82%. With `Cc1nnc(SC(C)C(=O)Nc2ccc3ccccc3c2)n1C` (stereo not shown), the “hERG current change (%, negative = inhibition) at 10uM” value was -3.23%.

`O=C(Oc1ccc(-c2nnco2)cc1)N1CCCCC1`: the “hERG current change (%, negative = inhibition) at 10uM” value is on record as 7.42%. Regarding `O=C1N=C(N2CCCCC2)SC1=C1CCCCC1`, the “hERG current change (%, negative = inhibition) at 10uM” value is listed as -9.8%. To `CS(=O)(=O)N1CCc2cc(C(=O)Nc3ccc(COCC(F)(F)F)cc3)ccc21` belongs 5.62%; to `Cc1c(C(=O)N2CCCC2)nnn1-c1nonc1N`, 8.67%. As to `O=[N+]([O-])c1ccc(/C=N/Nc2nc(-c3ccccc3)c3cc(Br)ccc3n2)o1`, the “hERG current change (%, negative = inhibition) at 10uM” value is -4.84%.

Regarding `CCCNC(=O)NC(=O)COC(=O)c1oc2ccc(OCC)cc2c1C`, the “hERG current change (%, negative = inhibition) at 10uM” value was found to be 3.45%. To `Cc1oc(C)c(C(=O)O)c1C(=O)O` belongs 16%; to `CN(Cc1ccccc1)S(=O)(=O)c1ccc(NC(=O)c2ccccc2C(=O)O)cc1`, -5.78%; to `O=C1C2C3C=CC(C3)C2C(=O)N1c1ccc(-c2nc3ccccc3o2)cc1` (stereo not shown), 15.6%. Under `CCCCOc1ccc(-c2nnn(CC(=O)NCCc3c[nH]c4ccccc34)n2)cc1` stands -4.29%; under `O=C(C1CCN(S(=O)(=O)c2cccc3nsnc23)CC1)N1CCc2ccccc2C1`, -42.4%; under `CCCn1c(C)cc(=O)c2cc(NC(=O)c3ccccn3)ccc21`, -32.9%.

For `COc1ccccc1NC(=O)CN1C(=O)CC(C)S(=O)(=O)c2ccccc21` (stereo not shown), the “hERG current change (%, negative = inhibition) at 10uM” value is on record as -5.13%.

Turning to `Cc1nc(Nc2ccccc2)[nH]c(=O)c1CCC(C)C`, the “hERG current change (%, negative = inhibition) at 10uM” value stood at 2.21%. Consider `O=C(NCc1cccs1)c1cccc(S(=O)(=O)N2CCCCC2)c1`, for which the “hERG current change (%, negative = inhibition) at 10uM” value is -29.5%. Regarding `O=C(Nc1cccc(C(F)(F)F)c1)c1cc(Br)cc2c1OCC2`, the “hERG current change (%, negative = inhibition) at 10uM” value was 7.24%. Under `CC(=O)Nc1cccc(NC(=O)c2cccc(-c3ccc(O)cc3)c2)c1` stands -2.6%. In the case of `CCOc1cc(C2C(C(=O)OC)=CN(C3CCCC3)C=C2C(=O)OC)cc(Br)c1O`, the “hERG current change (%, negative = inhibition) at 10uM” value is on record as -1.51%. To `O=P(c1ccccc1)(c1ccccc1)c1ccc(O)cc1` belongs 3.4%; to `CC(=O)Nc1ccc(C2NC(=O)c3ccccc3O2)cc1` (stereo not shown), 3.49%. On to `COc1ccc(C2(O)CCN(C(=O)c3ccc4c(c3)OCO4)CC2)cc1`, for which the “hERG current change (%, negative = inhibition) at 10uM” value was -0.242%.

As for `O=C(NCc1cccnc1)c1cccc(S(=O)(=O)N2CCCCC2)c1`, the “hERG current change (%, negative = inhibition) at 10uM” value was -5.56%. To `Cc1cnc(C(=O)OCC(=O)NC2CCCCCCC2)cn1` belongs 7.16%; to `COc1ccc(-n2c(=S)[nH]c3cc(C(=O)NCc4ccccc4)ccc3c2=O)c(OC)c1`, 20.9%; to `O=C(CCCN1C(=O)c2ccccc2C1=O)NC1CCCCCC1`, 4.1%.

On to `CCOC(=O)c1c(NC(=O)C2COc3ccccc3O2)sc2c1CCN(Cc1ccccc1)C2.Cl` (stereo not shown), for which the “hERG current change (%, negative = inhibition) at 10uM” value is 0.603%. With `CC(C)[C@H](NC(=O)Nc1cccc(Br)c1)C(=O)O`, the “hERG current change (%, negative = inhibition) at 10uM” value is reported as -8.58%. In the case of `O=C1CC(C(F)(F)C(F)(F)C(F)(F)C(F)F)=Nc2ccccc2N1`, the “hERG current change (%, negative = inhibition) at 10uM” value is -16.8%. Under `CCCc1cc(=O)oc2cc(OCc3cccc(OC)c3)c(Cl)cc12` stands 9.7%; under `CN1CCc2c(c3ccccc3n2C)C1.Cl`, 11.4%. On to `CC(C)(C)N(NC(=O)c1ccccc1)C(=O)c1ccc(C(=O)N(NC(=O)c2ccccc2)C(C)(C)C)cc1`, for which the “hERG current change (%, negative = inhibition) at 10uM” value was found to be 1.81%.

In the case of `COC(=O)c1c(-c2snnc2C)n[nH]c1C`, the “hERG current change (%, negative = inhibition) at 10uM” value was -0.281%. Under `C/C(=N\NC(=O)Cc1cccn1C)c1ccco1` stands 17.9%. With `COc1ccccc1/C=C/C=N/NC(=O)Cc1cccn1C`, the “hERG current change (%, negative = inhibition) at 10uM” value is recorded as -4.88%. Under `Cc1cc2nnn(-c3nnc(-c4ccccc4)c4ccccc34)c2cc1C` stands 7.19%; under `COCCSc1ccccc1C(=O)Nc1ccc2c(c1)OCCO2`, 5.7%; under `CC(=O)Nc1ccc(Oc2nc(-c3ccccn3)nc3ccccc23)cc1`, -7.53%.

Turning to `COC(=O)c1sc2ccccc2c1NC(=O)c1ccc(S(=O)(=O)N2CCCCC2C)cc1` (stereo not shown), the “hERG current change (%, negative = inhibition) at 10uM” value is listed as 4.64%. Under `Cc1nn(CC(=O)NCc2ccc(C(=O)O)cc2)c(C)c1[N+](=O)[O-]` stands 21.5%. For the molecule `O=C(COc1coc(CN2CCc3ccccc32)cc1=O)Nc1cccc(F)c1`, the “hERG current change (%, negative = inhibition) at 10uM” value was determined as 11.9%. As for `COc1cccc(CNC(=O)COc2cccc3c2OC(C)(C)C3)c1`, the “hERG current change (%, negative = inhibition) at 10uM” value was -14.4%. As for `CCOc1ccccc1CN1CCN(Cc2ccc3cccc(OC)c3n2)CC1CCO` (stereo not shown), the “hERG current change (%, negative = inhibition) at 10uM” value is reported as -55.5%. On to `O=C(COC(=O)CNC(=O)c1ccccc1)Nc1nc(-c2ccccc2)cs1`, for which the “hERG current change (%, negative = inhibition) at 10uM” value was -6.07%. In the case of `Cc1oc(-c2ccccc2F)nc1CS(=O)(=O)CC(=O)NCCCN1CCN(C)CC1`, the “hERG current change (%, negative = inhibition) at 10uM” value is recorded as 1.66%. Under `O=S(=O)(c1ccc(Br)cc1)N1CCCN(Cc2cccc(F)c2)CC1` stands -17.9%. To `COc1cc2c(cc1OC)C1=C(C#N)CN(CC(=O)O)CN1CC2` belongs 10.5%; to `O=C(NCc1ccc(F)cc1)c1ccc[nH]1`, 14.1%.

As to `COC(=O)[C@@H](NC(=O)c1cc(COc2cncc(Cl)c2)on1)c1ccccc1`, the “hERG current change (%, negative = inhibition) at 10uM” value is recorded as -4.11%. To `Cc1ccc(C(=O)OCC(=O)NC(=O)c2ccc(C(C)(C)C)cc2)c(O)c1` belongs 9.52%.
